According to article PMC10668032:
Some of the results follow. At the low end of the ranking, values are background and their order means little.

molecular target: SIX1-Q177R homeodomain (UniProt Q15475); test: universal protein binding microarray; conditions: Universal all-10-mer PBM (8x60K, AMADID 030236), 300 nM GST-tagged protein, Alexa Fluor 488 anti-GST; buffer, salt, pH and temperature not stated; high values mean tight binding; most listed sequences are background and not binding sites; double strand, one strand shown

| Sequence | binding signal |
| --- | --- |
| GCCTTGCC | -0.344 E-score |
| ACCATAAA | 0.00583 E-score |
| CACTACTG | 0.171 E-score |
| ACGATGAG | -0.0408 E-score |
| GATTAAAA | -0.213 E-score |
| AAATTGAG | -0.198 E-score |
| TGCCAGAA | -0.129 E-score |
| AGCTTCTA | -0.249 E-score |
| CGAAAACC | -0.0505 E-score |
| GTCCTTAA | -0.0211 E-score |
| CCATCGCG | -0.0716 E-score |
| ACAACAGC | -0.12 E-score |
| ACCAAACG | -0.0506 E-score |
| CTGACATC | -0.242 E-score |
| AGTGCATG | 0.0709 E-score |
| ACTGGGGG | 0.117 E-score |
| CTGGGGAA | -0.129 E-score |
| CTTACAGA | -0.151 E-score |
| ATTCCTCA | -0.187 E-score |
| GGAGCAAC | -0.0873 E-score |
| ATGCGGCA | -0.149 E-score |
| CATTCAGC | -0.156 E-score |
| AGAGCATA | -0.229 E-score |
| TACGGAGA | -0.0464 E-score |
| GCGACATA | -0.208 E-score |

| Sequence | binding signal |
| --- | --- |
| GCAGAGCA | -0.0486 E-score |
| AAGTGTTC | 0.285 E-score |
| ATATAGAT | -0.163 E-score |
| CATAGTGA | -0.0741 E-score |
| ACTTACTG | -0.11 E-score |
| CCCCCCTA | 0.232 E-score |
| CAGCATGC | -0.269 E-score |
| AATCAGAA | -0.142 E-score |
| AAACTGGG | -0.139 E-score |
| CACTCGGG | 0.225 E-score |
| GCAGCCAC | -0.188 E-score |
| CCATCGGG | 0.00323 E-score |
| TGCACACA | 0.144 E-score |
| CCGAGGCG | -0.0343 E-score |
| GCTAATCC | 0.0769 E-score |
| CAACTACA | 0.247 E-score |
| ACAACTCC | -0.0321 E-score |
| CCGCACCA | 0.16 E-score |
| AATTAGGA | -0.169 E-score |
| CAGACACC | 0.456 E-score |
| ATGTCGGG | 0.199 E-score |
| AGACTGGA | -0.0648 E-score |
| GCCAAAGC | -0.1 E-score |
| GCCCTGGA | 0.0652 E-score |
| GGAGGTAA | -0.142 E-score |

| Sequence | binding signal |
| --- | --- |
| CGAGCTAA | -0.144 E-score |
| CGACGCGC | 0.0472 E-score |
| AAGATTGC | -0.163 E-score |
| GCTCACAA | -0.0753 E-score |
| ATCTACAT | -0.23 E-score |
| ACGTTTTG | -0.209 E-score |
| CATTGTTC | 0.00531 E-score |
| ATCAGCGC | -0.00585 E-score |
| ACCTAGAT | 0.0693 E-score |
| ATCACAAT | -0.0971 E-score |
| GGACAGCA | -0.107 E-score |
| GCCAACCA | -0.22 E-score |
| AACACGGC | 0.35 E-score |
| GGTGCATA | 0.195 E-score |
| CTAGCAAA | 0.173 E-score |
| ATATTTCG | -0.0673 E-score |
| AGGAACTA | -0.124 E-score |
| ATGCGCAT | -0.107 E-score |
| CTGCATTA | 0.0596 E-score |
| AGAATTGA | -0.0789 E-score |
| GTCTATTA | -0.0908 E-score |
| AAGGTCCT | -0.065 E-score |
| CCGCCCCA | 0.239 E-score |
| ACGACGCT | -0.106 E-score |
| TAGCAAGA | -0.0253 E-score |

| Sequence | binding signal |
| --- | --- |
| GCAAGAAC | -0.141 E-score |
| ATGAAAAC | -0.00859 E-score |
| CGCCTTGA | 0.0104 E-score |
| ACTAGCAT | -0.157 E-score |
| AAACTAAA | -0.199 E-score |
| AGATAGCT | -0.202 E-score |
| AGACTGCC | -0.184 E-score |
| AGTATACA | 0.235 E-score |
| CGTTCAAA | -0.206 E-score |
| CGGGCCTA | -0.167 E-score |
| CGTCATTA | -0.0324 E-score |
| GTACGCAC | 0.0455 E-score |
| AAAGATAC | 0.115 E-score |
| ACTATTAG | -0.0437 E-score |
| ATCGTAAA | -0.0685 E-score |
| AGTACCTC | 0.0726 E-score |
| TCAGGTAA | -0.182 E-score |
| AGTAGGAC | -0.139 E-score |
| GTCAGGGA | -0.00635 E-score |
| CTATAAAC | -0.0689 E-score |
| ATAGTCTC | -0.141 E-score |
| AGCTTGAA | -0.281 E-score |
| GAGGTATC | 0.337 E-score |
| ACTTTTCC | -0.144 E-score |
| AATCAGCG | -0.185 E-score |

| Sequence | binding signal |
| --- | --- |
| AGCGAGAG | -0.0347 E-score |
| CCACCGGG | 0.058 E-score |
| CTTCGAAC | -0.109 E-score |
| ACTATAGA | -0.0766 E-score |
| AAAGTATG | -0.0784 E-score |
| TCAGGACA | -0.0188 E-score |
| AAGTTATA | -0.0119 E-score |
| ACACAGAC | 0.123 E-score |
| AAGGAAAT | -0.2 E-score |
| AGGCGTCG | 0.0453 E-score |
| GCAAACAA | 0.0233 E-score |
| GCACACCA | 0.401 E-score |
| TGGTCACA | -0.0477 E-score |
| ATGCCATA | -0.139 E-score |
| ACTTAGTG | -0.0167 E-score |
| GACTGCAA | -0.328 E-score |
| AGCCGGCT | -0.107 E-score |
| TCAAACAA | -0.139 E-score |
| ATTATGGA | -0.0211 E-score |
| ATCAGGGA | 0.0618 E-score |
| CAGGGAAA | -0.245 E-score |
| CATACCGC | -0.0219 E-score |
| TAGGCTGA | -0.019 E-score |
| AGCTTGCA | -0.239 E-score |
| GGCTAGGA | -0.238 E-score |

| Sequence | binding signal |
| --- | --- |
| CGCATTGA | -0.0604 E-score |
| GCTACAAA | -0.212 E-score |
| GCGCCAAA | -0.0832 E-score |
| ACTGCGGA | 0.00579 E-score |
| GCCTTAGC | -0.118 E-score |
| CCTTGAGA | 0.0667 E-score |
| CGACTCCG | 0.227 E-score |
| GGCTGCAA | -0.0681 E-score |
| CTGGGCAA | -0.175 E-score |
| TCCGGCGA | -0.167 E-score |
| ACTCAGAG | -0.0267 E-score |
| CGAGCAAG | -0.019 E-score |
| TAGGTACA | 0.179 E-score |
| ACCCTCGT | 0.191 E-score |
| CCTCACCC | 0.154 E-score |
| GACCCAAA | -0.0846 E-score |
| GCTCTGGA | -0.0583 E-score |
| AGGAAATG | -0.118 E-score |
| CACTATAG | 0.192 E-score |
| AGTATAGC | -0.23 E-score |
| AATGGCAG | -0.131 E-score |
| GCCCGAAC | -0.208 E-score |
| AATGACTA | -0.128 E-score |
| ATAAATTC | -0.0814 E-score |
| AGGAAGAT | -0.0897 E-score |

| Sequence | binding signal |
| --- | --- |
| AGACGTGG | -0.0945 E-score |
| AACTAAGG | -0.288 E-score |
| CAATTGGG | -0.0255 E-score |
| GCCAAACC | -0.118 E-score |
| GGCCGATA | -0.13 E-score |
| AGACGTAA | -0.0671 E-score |
| AACCAATA | -0.132 E-score |
| CAAGGTGA | 0.0664 E-score |
| GCCCGACC | -0.0715 E-score |
| AGTGTCCG | 0.365 E-score |
| CAAATTAC | -0.0378 E-score |
| ACTACGCC | -0.0222 E-score |
| AGTGTTGC | 0.321 E-score |
| GCGGCTTA | -0.205 E-score |
| CATAAGCA | 0.0155 E-score |
| TCGTCCAA | -0.193 E-score |
| CAACCGTC | -0.231 E-score |
| ACATAATG | -0.137 E-score |
| ACGACACT | 0.428 E-score |
| CTCCAGAA | -0.0585 E-score |
| ATCGCTGA | -0.18 E-score |
| AACCCTCT | 0.00303 E-score |
| AGTTGAGG | -0.191 E-score |
| AACGAGAG | -0.186 E-score |
| ACCAATGC | -0.081 E-score |

| Sequence | binding signal |
| --- | --- |
| CCAAGAGC | 0.106 E-score |
| CTACCGTA | -0.0805 E-score |
| ATACCGTC | 0.0905 E-score |
| CCGCTGCC | -0.0686 E-score |
| CCCATCAG | 0.0999 E-score |
| AGAGAACG | -0.188 E-score |
| CCAGCTAG | -0.0135 E-score |
| CGAGGGTA | 0.0841 E-score |
| TAGTTGGA | -0.0294 E-score |
| CGACAGCG | -0.183 E-score |
| CTGAAGGA | -0.178 E-score |
| AGGGACCC | -0.0162 E-score |
| CGAAAGTC | -0.209 E-score |
| CCTAGGCA | -0.0906 E-score |
| AACAGTGG | -0.0612 E-score |
| AATTGGCG | -0.0628 E-score |
| CAGACTTC | 0.00528 E-score |
| ATTGCTGC | -0.152 E-score |
| CGTACATA | 0.0438 E-score |
| AGTGTAGC | 0.394 E-score |
| GACGCGAC | -0.0139 E-score |
| ACTCCGAG | 0.142 E-score |
| GTATAAAC | 0.123 E-score |
| CTTTGGTC | -0.238 E-score |
| GGTAACAC | 0.432 E-score |

| Sequence | binding signal |
| --- | --- |
| CCGCCACA | 0.282 E-score |
| AATCTTCT | 0.00395 E-score |
| GTCAGTGA | 0.0324 E-score |
| GAGTAACC | 0.0801 E-score |
| ATTGTATA | 0.0276 E-score |
| TCAGCTCA | -0.0887 E-score |
| CGACAAGC | -0.0916 E-score |
| AGACGTGA | -0.28 E-score |
| GTTAGATA | -0.0411 E-score |
| CGTTCCAC | -0.0341 E-score |
| CCAATGTA | 0.0709 E-score |
| CGGAATGC | -0.31 E-score |
| GAGAGCGC | -0.254 E-score |
| GCGACGCC | 0.0511 E-score |
| AATCGCAT | -0.0474 E-score |
| ACTGTCAG | 0.0113 E-score |
| GAACGCAA | -0.125 E-score |
| AACCTCCT | 0.0252 E-score |
| AATGACGA | -0.0396 E-score |
